Results on 26 molecules are retold here after US20230135471A1 (INTEGRATED DNA TECHNOLOGIES, published 2023).

Test [1] deals with MBP tagged 53BP1 fragment (a.a. 1484-1603). As to the kind of experiment: BLI, fold change Ka of Ubv/Ka of CM1. In general terms: Biolayer interferometry detects binding as a change in optical thickness at a sensor tip.
Test [2] shares this target. The experiment in a line: BLI, Ubv on Ni-NTA tip, 1:1 global fit.
Test [3] has the same target. The experiment in a line: BLI, 0.125 µM 53BP1 fragment.
Test [4] shares this target. The experiment in a line: BLI, 0.5 µM 53BP1 fragment.
For test [5] the target is unchanged. The experiment in a line: BLI, 0.25 µM 53BP1 fragment.
Test [6] shares this target. As to the kind of experiment: BLI, 1 µM 53BP1 fragment.
The target is the same in test [7]. The experiment in a line: BLI, 5 µM 53BP1 fragment.
Test [8] shares this target. The experiment in a line: BLI, 20 µM 53BP1 fragment.
Test [9] has the same target. As to the kind of experiment: BLI, 2 µM 53BP1 fragment.
Test [10] shares this target. The experiment in a line: BLI, fold change Ka of Ubv/Ka of CM1. This is another data set of the same source.
The target is the same in test [11]. The experiment in a line: BLI, KA (M-1), log axis.

B1: - A46Q (CM49) (designed binder)
Ubv: MHHHHHHGGSGMLIFVRMLTGKMIELEVEPSDTIENVKAKIQDHEGIPPDQQRLAFAGKSLEDGRTLSDYNILKDPKKMPLLRLR
B1: the binding result in test [1] is on record as “binds”.

B2: i53 K6R, His-tagged (designed binder)
chain: MHHHHHHGGSGMLIFVRTLTGKTITLEVEPSDTIENVKAKIQDKEGIPPDQQRLAFAGKSLEDGRTLSDYNILKDSKLHPLLRLR
For B2, the Kd (commonly a measure of binding affinity in units of concentration) in test [2] stood at 3930 nM. In addition, the koff (commonly the first-order rate constant of dissociation) in test [2] came out at 0.0644 s⁻¹. The kon (usually a measure of how fast the partners come together) in test [2] was found to be 16400 M⁻¹ s⁻¹. Also, the Response in test [3] was determined as 0.014; in test [4], 0.0908; in [5], 0.038; in test [6] it was 0.171; in test [7], 0.411; in test [8], 0.654. In [9], this molecule yielded a Response of 0.275.

B3: i53 S65P, His-tagged (designed binder)
chain: MHHHHHHGGSGMLIFVKTLTGKTITLEVEPSDTIENVKAKIQDKEGIPPDQQRLAFAGKSLEDGRTLSDYNILKDPKLHPLLRLR
In [2], B3 yielded a Kd of 2090 nM. The same molecule gave a koff in test [2] of 0.0514 s⁻¹. Besides, the kon in test [2] was determined as 24600 M⁻¹ s⁻¹. In addition, the Response was 0.0384 in [3]; 0.143 in test [4]; 0.069 in [5]; 0.252 in test [6]; 0.508 in [7]; 0.716 in test [8]. Besides, the Response in test [9] was determined as 0.361.

B4: CM114 (designed binder)
Ubv: MHHHHHHGGSGMLIFVRMLTGKMIELEVMPSDTIENVKAKIQDHEGIPPDQQRLAFQGTSLDDGRTLGDYNILKDPKKMPLLRLR
Consider B4, for which the binding result in test [10] is listed as “binds”.

B5: i53 T14E, His-tagged (designed binder)
chain: MHHHHHHGGSGMLIFVKTLTGKTIELEVEPSDTIENVKAKIQDKEGIPPDQQRLAFAGKSLEDGRTLSDYNILKDSKLHPLLRLR
Turning to B5, the affinity in test [2], expressed as Kd, was 2110 nM. In addition, the koff in test [2] was found to be 0.0702 s⁻¹. The kon in test [2] is 33300 M⁻¹ s⁻¹. The Response in [3] is 0.0223; in test [4], 0.123; in [5] it was 0.0571; in [6], 0.224; in [7], 0.462; in test [8] it was 0.666. For the same molecule, in test [9], the Response was determined as 0.333.

B6: i53 A46Q, His-tagged (designed binder)
chain: MHHHHHHGGSGMLIFVKTLTGKTITLEVEPSDTIENVKAKIQDKEGIPPDQQRLAFQGKSLEDGRTLSDYNILKDSKLHPLLRLR
For B6, the affinity in [2], expressed as Kd, was 2200 nM. The same molecule returned a koff in test [2] of 0.0496 s⁻¹. In test [2], this molecule gave a kon of 22600 M⁻¹ s⁻¹. The Response in [3] was found to be 0.0512; in [4], 0.194; in test [5] it was 0.102; in [6] it was 0.348; in test [7] it was 0.7; in test [8], 1.01. In [9], this molecule showed a Response of 0.5.

B7: CM119 (designed binder)
Ubv: MHHHHHHGGSGMLIFVRMLTGKMIELEVMPSDTIEVVKAKIFDHEGIPPDQQHLTFQGTLLEDGYTLGDYNILKDPKKMPLLRLR
In the case of B7, the binding result in [10] is on record as “binds”.

B8: i53 K33A, His-tagged (designed binder)
chain: MHHHHHHGGSGMLIFVKTLTGKTITLEVEPSDTIENVKAKIQDAEGIPPDQQRLAFAGKSLEDGRTLSDYNILKDSKLHPLLRLR
Consider B8, for which the Kd in [2] was 2100 nM. The koff in test [2] was determined as 0.062 s⁻¹. In [2], this molecule showed a kon of 29500 M⁻¹ s⁻¹. Moreover, the Response was 0.0409 in test [3]; 0.185 in test [4]; 0.0935 in [5]; 0.325 in test [6]; 0.657 in test [7]; 0.96 in test [8]. Moreover, the Response in test [9] worked out at 0.48.

B9: i53 K63I, His-tagged (designed binder)
chain: MHHHHHHGGSGMLIFVKTLTGKTITLEVEPSDTIENVKAKIQDKEGIPPDQQRLAFAGKSLEDGRTLSDYNILIDSKLHPLLRLR
With B9, the dissociation constant (Kd) in [2] was found to be 2870 nM. The koff in test [2] worked out at 0.0546 s⁻¹. The molecule also registered a kon in test [2] of 19000 M⁻¹ s⁻¹. The Response in test [3] turned out to be 0.0324; in test [4], 0.14; in test [5] it was 0.0623; in test [6] it was 0.242; in test [7] it was 0.526; in [8] it was 0.797. The molecule also showed a Response in test [9] of 0.374.

B10: CM118 (designed binder)
Ubv: MHHHHHHGGSGMLIFVRMLTGKMIELEVMPSDTIEVVKAKIFDHEGIPPDQQHLAFQGTSLEDGYTLGDYNILKDPKKMPLLRLR
With B10, the binding result in [10] is “binds”.

B11: CM142-DM (CM203), His-tagged (designed binder)
chain: MHHHHHHGGSGYLIFVRMLTGKMIELEVEPSDTIENIKAKIQDHEGIPLDQQRLTFQGKLLEDGRTLSDYNLLIDPKKMLVLRMQ
Turning to B11, the binding result in [11] was “binds”.

B12: CM112 (designed binder)
Ubv: MHHHHHHGGSGMLIFVRMLTGKMIELEVEPSDTIEVVKAKIQDHEGIPPDEQRLAFQGKSLDDGRTLSDYNILKDPKKMPLLRLR
Turning to B12, the binding result in test [10] is reported as “binds”.

B13: - K6R (CM44) (designed binder)
Ubv: MHHHHHHGGSGMLIFVKMLTGKMIELEVEPSDTIENVKAKIQDHEGIPPDQQRLAFQGKSLEDGRTLSDYNILKDPKKMPLLRLR
Consider B13, for which the binding result in test [1] was “binds”.

B14: CM143-DM (designed binder)
Ubv: MHHHHHHGGSGMLIFVRMLTGKMIELEVEPSDTIEVVKAKIQDHEGIPLDEQRLTFQGKLLDDGRTLSDYNLLIDPKKMLVLRLQ
notes: also called CM204
With B14, the binding result in [11] was “binds”.

B15: CM115 (designed binder)
Ubv: MHHHHHHGGSGMLIFVRMLTGKMIELMVEPSDTIEVVKAKIQDHEGIPPDEQRLAFQGKLLEDGRTLSDYNILKDPKKMPLLRLR
As to B15, the binding result in [10] is reported as “binds”.

B16: CM117 (designed binder)
Ubv: MHHHHHHGGSGMLIFVRMLTGKMIELEVEPSDTIENVKAKICDHEGIPPDQQHLAFQGKSLEDGRTLGDYNILKDPKKMPLLRLR
Turning to B16, the binding result in test [10] is recorded as “binds”.

B17: - L67K (CM51) (designed binder)
Ubv: MHHHHHHGGSGMLIFVRMLTGKMIELEVEPSDTIENVKAKIQDHEGIPPDQQRLAFQGKSLEDGRTLSDYNILKDPKLMPLLRLR
In the case of B17, in test [1], the binding result is “binds”.

B18: - H68M (CM52) (designed binder)
Ubv: MHHHHHHGGSGMLIFVRMLTGKMIELEVEPSDTIENVKAKIQDHEGIPPDQQRLAFQGKSLEDGRTLSDYNILKDPKKHPLLRLR
Take B18: the binding result in test [1] was “binds”.

B19: - T14E (CM47) (designed binder)
Ubv: MHHHHHHGGSGMLIFVRMLTGKMITLEVEPSDTIENVKAKIQDHEGIPPDQQRLAFQGKSLEDGRTLSDYNILKDPKKMPLLRLR
With B19, the binding result in test [1] was “binds”.

B20: CM111 (designed binder)
Ubv: MHHHHHHGGSGYLIFVRMLTGKMIELEVEPSDTIENIKAKIQDHEGIPPDQQRLAFQGKSLEDGRTLSDYNILKDPKKMPLLRMR
In the case of B20, the binding result in test [10] was “binds”.

B21: CM138-DM (designed binder)
Ubv: MHHHHHHGGSGYLIFVRMLTGKMIELEVMPSDTIEVIKAKIQDHEGIPPDEQRLAFQGTSLDDGRTLGDYNLLIDPKKMLVLRMQ
notes: also called CM199
As to B21, in [11], the binding result is “binds”.

B22: - S65P (CM50) (designed binder)
Ubv: MHHHHHHGGSGMLIFVRMLTGKMIELEVEPSDTIENVKAKIQDHEGIPPDQQRLAFQGKSLEDGRTLSDYNILKDSKKMPLLRLR
On to B22, for which, in test [1], the binding result is recorded as “binds”.

B23: - T7M (CM45) (designed binder)
Ubv: MHHHHHHGGSGMLIFVRTLTGKMIELEVEPSDTIENVKAKIQDHEGIPPDQQRLAFQGKSLEDGRTLSDYNILKDPKKMPLLRLR
B23: the binding result in [1] is “binds”.

B24: CM116 (designed binder)
Ubv: MHHHHHHGGSGMLIFVRMLTGKMIELEVEPSDTIENIKAKIQDHEGIPPDQYRLAFQGKLLEDGRTLGDYNILKDPKKMPLLRLR
Take B24: in test [10], the binding result was “binds”.

B25: - T12M (CM46) (designed binder)
Ubv: MHHHHHHGGSGMLIFVRMLTGKTIELEVEPSDTIENVKAKIQDHEGIPPDQQRLAFQGKSLEDGRTLSDYNILKDPKKMPLLRLR
For the molecule B25, the binding result in [1] is given as “binds”.

B26: - K33H (CM48) (designed binder)
Ubv: MHHHHHHGGSGMLIFVRMLTGKMIELEVEPSDTIENVKAKIQDKEGIPPDQQRLAFQGKSLEDGRTLSDYNILKDPKKMPLLRLR
On to B26, for which the binding result in test [1] was “binds”.
